PMC10730695
No constants are given. Whether binding was seen depends on the method and setting. In cells and extracts the contact can be indirect. Some results given as binding are weak or reduced against the parent protein; the word gives no strength. Values belong to the substance of their own block, whether it stands above or below them.

Sequences of proteins named here, by UniProt entry; tags and fusion partners are left off. A change or cut given only in a name is not applied to a line headed by its entry. Residues count along the entry.
UniProt Q8N884: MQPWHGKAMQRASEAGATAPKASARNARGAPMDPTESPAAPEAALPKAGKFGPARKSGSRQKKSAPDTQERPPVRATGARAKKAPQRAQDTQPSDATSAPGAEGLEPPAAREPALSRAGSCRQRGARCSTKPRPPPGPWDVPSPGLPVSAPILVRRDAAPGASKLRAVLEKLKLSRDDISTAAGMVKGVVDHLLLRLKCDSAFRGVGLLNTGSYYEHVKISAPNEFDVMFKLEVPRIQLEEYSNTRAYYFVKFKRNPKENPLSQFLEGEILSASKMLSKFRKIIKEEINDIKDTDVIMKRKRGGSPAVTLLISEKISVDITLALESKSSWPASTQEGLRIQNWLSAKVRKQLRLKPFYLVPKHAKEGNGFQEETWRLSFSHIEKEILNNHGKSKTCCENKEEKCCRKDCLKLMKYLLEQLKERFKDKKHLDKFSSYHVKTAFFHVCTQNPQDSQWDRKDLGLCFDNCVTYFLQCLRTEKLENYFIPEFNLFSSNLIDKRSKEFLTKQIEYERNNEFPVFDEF
Flag-cGAS (1–160): residues 1-160 of Q8N884
Flag-cGAS (161–522)-MBP: residues 161-522 of Q8N884
UniProt P16220: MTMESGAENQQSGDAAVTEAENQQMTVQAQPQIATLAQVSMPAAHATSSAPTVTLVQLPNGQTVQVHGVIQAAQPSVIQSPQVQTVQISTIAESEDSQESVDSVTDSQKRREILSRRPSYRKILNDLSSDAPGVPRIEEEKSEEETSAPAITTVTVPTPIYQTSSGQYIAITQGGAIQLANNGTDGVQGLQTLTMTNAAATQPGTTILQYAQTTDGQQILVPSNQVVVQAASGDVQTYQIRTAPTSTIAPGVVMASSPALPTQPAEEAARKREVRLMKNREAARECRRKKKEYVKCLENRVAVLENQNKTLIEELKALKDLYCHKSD

Columns and labels:
[1] = target: cGAS (cyclic GMP-AMP synthase), endogenous (human (endogenous in HBE)) (UniProt Q8N884); test: proximity ligation; Duolink In Situ Red kit; fixed and permeabilised HBE cells, antibodies against cGAS and CREB; red signal in the nucleus
[2] = target: cGAS (cyclic GMP-AMP synthase), endogenous (human (endogenous in HBE)) (UniProt Q8N884); test: co-IP; endogenous proteins; lysate precipitated with magnetic protein A/G beads conjugated with anti-cGAS or anti-CREB antibodies, western blot
[3] = target: Flag-tagged cGAS (cyclic GMP-AMP synthase), full length (human) (UniProt Q8N884); test: co-IP; HEK293T cells co-transfected for 48 h; lysate precipitated with anti-Flag beads overnight, washed four times with PBST, blot with anti-HA
[4] = target: Flag-cGAS (161–522) (human) (UniProt Q8N884); test: as above
[5] = target: Flag-cGAS (1–160) (human) (UniProt Q8N884); test: as above
[6] = target: Flag-cGAS (161–522)-MBP (human) (UniProt Q8N884); test: as above
[7] = target: HA-tagged CREB (cAMP response element-binding protein) (UniProt P16220); test: co-IP; HEK293T cells co-transfected for 48 h; lysate precipitated with anti-HA beads overnight, washed four times with PBST, immunoblot

binding [1]: binds
binding [2]: binds
Substance: CREB (cAMP response element-binding protein), endogenous (from UniProt P16220 1-327)

binding [3]: binds
binding [4]: binds
binding [5]: no binding
binding [6]: binds
Substance: HA-tagged CREB (cAMP response element-binding protein) (from UniProt P16220 1-327)

binding [7]: binds
Substance: Flag-tagged cGAS (cyclic GMP-AMP synthase), full length (from UniProt Q8N884 1-522)
